The record followed here is the BET-seq Pho4 binding data (Le et al. 2018).

This is one part of the list. These are noisy estimates, calculated here from bound and input reads.

For the test, the target named is T1, Pho4 (S. cerevisiae) (UniProt P07270).
T1 sequence: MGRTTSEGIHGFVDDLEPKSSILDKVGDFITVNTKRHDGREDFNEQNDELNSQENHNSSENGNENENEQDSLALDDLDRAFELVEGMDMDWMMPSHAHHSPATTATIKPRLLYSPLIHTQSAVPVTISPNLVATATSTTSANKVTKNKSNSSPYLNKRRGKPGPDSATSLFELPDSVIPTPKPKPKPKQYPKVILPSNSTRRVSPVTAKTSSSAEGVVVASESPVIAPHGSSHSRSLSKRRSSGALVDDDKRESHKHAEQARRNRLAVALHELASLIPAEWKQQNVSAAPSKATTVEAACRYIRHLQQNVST
As to the kind of experiment: relative binding free energy (BET-seq); higher = weaker binding. Conditions: reference: library average.
On to GTGTACACGTGCGTCT, for which the “relative binding free energy” value came to 0.03 kcal/mol. The value for GGGAGCACGTGAAGGT was 0.25 kcal/mol; that for TATGTCACGTGGCGAG was -0.14 kcal/mol. With GGCAGCACGTGTTAGT the figure was 0.07 kcal/mol; with GGCGCCACGTGTAGGG, -0.08 kcal/mol.

Turning to TACTTCACGTGGATGT, the “relative binding free energy” value was 0.41 kcal/mol. The value for TTTAGCACGTGGTCCG was -0.12 kcal/mol; that for GTCTTCACGTGGGTAA was 0.25 kcal/mol.

Regarding CTGGGCACGTGCTGGA, the “relative binding free energy” value is -0.11 kcal/mol. The value for TACGGCACGTGTTATT was -0.07 kcal/mol; that for TTCTGCACGTGTGAGG was 0.07 kcal/mol. The value for ACAGTCACGTGTTAGT was -0.04 kcal/mol. In the case of AGTTGCACGTGGGGAC, the “relative binding free energy” value is -0.06 kcal/mol.

Turning to AGTCGCACGTGGGTCG, the “relative binding free energy” value is -0.2 kcal/mol.

Take AGTGTCACGTGGCGTA: the “relative binding free energy” value is -0.1 kcal/mol. For the sequence TAAGTCACGTGCGTAT, the “relative binding free energy” value came to 0.05 kcal/mol.

Consider TGGGCCACGTGGAATT, for which the “relative binding free energy” value was 0.12 kcal/mol. With CTCTTCACGTGTGAGT the figure was 0.31 kcal/mol. With TGTATCACGTGGCGCG the figure was 0.1 kcal/mol; with TGCTTCACGTGTCTGT, 0.15 kcal/mol. With GCTTGCACGTGGGTTA the figure was -0.21 kcal/mol. Turning to CGTTTCACGTGAATGA, the “relative binding free energy” value was determined as 0.39 kcal/mol. With TTAGTCACGTGGTTCT the figure was -0.08 kcal/mol; with TTTGGCACGTGGATCG, -0.11 kcal/mol; with TGGCACACGTGGGTAG, -0.08 kcal/mol. With GAGGTCACGTGGAGGC the figure was 0.03 kcal/mol; with TTTAGCACGTGCTAGG, -0.16 kcal/mol. With TCTTTCACGTGAAGTG the figure was 0.31 kcal/mol; with GTGTGCACGTGAAGCT, 0.08 kcal/mol.

Turning to ATAAGCACGTGGTAAA, the “relative binding free energy” value is -0.08 kcal/mol.

On to TGGCTCACGTGGGTAG, for which the “relative binding free energy” value was found to be 0.11 kcal/mol.

Regarding TATGACACGTGATGTC, the “relative binding free energy” value was 0.19 kcal/mol.

For TCGTCCACGTGTGGGG, the “relative binding free energy” value is -0.03 kcal/mol.

AGTTGCACGTGGGCTC: the “relative binding free energy” value is -0.1 kcal/mol. With TTTGACACGTGGCGCA the figure was 0.01 kcal/mol; with TGAAGCACGTGGTTGC, -0.17 kcal/mol. The value for CATCTCACGTGGGGTG was 0.04 kcal/mol; that for TTGGGCACGTGGTGTT was -0.07 kcal/mol.

In the case of GCGGGCACGTGGGGCA, the “relative binding free energy” value was -0.2 kcal/mol. The value for GCGGGCACGTGTTAAG was 0 kcal/mol; that for AATGTCACGTGGAAAG was 0.17 kcal/mol. The value for TTCTTCACGTGGTAGT was 0.25 kcal/mol; that for GATTTCACGTGAGGTC was 0.53 kcal/mol; that for TTTCGCACGTGGTGGG was -0.13 kcal/mol. The value for AGGATCACGTGTAGTT was 0.1 kcal/mol.

For the sequence AGTTACACGTGTTAGG, the “relative binding free energy” value was determined as 0.06 kcal/mol. With AGTTACACGTGGGTTC the figure was -0.06 kcal/mol; with TTCAGCACGTGTAGGG, -0.03 kcal/mol. The value for TTTAGCACGTGAAGGG was 0.33 kcal/mol; that for AGGAGCACGTGGCGCG was -0.19 kcal/mol. Consider TAGGTCACGTGGGAAG, for which the “relative binding free energy” value was -0.01 kcal/mol. With AGGAGCACGTGATTGG the figure was 0.13 kcal/mol; with TATATCACGTGCTTTT, 0.04 kcal/mol; with TAGGTCACGTGGGAGT, 0.06 kcal/mol. The value for AGGTGCACGTGGTTGT was -0.07 kcal/mol; that for TGTACCACGTGTAAGG was 0.04 kcal/mol; that for TGCGTCACGTGCAGGT was 0 kcal/mol. For TGAAGCACGTGGTGAG, the “relative binding free energy” value is -0.15 kcal/mol. With GGGGGCACGTGGTACG the figure was -0.26 kcal/mol; with TGACGCACGTGGTGGC, -0.11 kcal/mol; with ACGTTCACGTGTGGGA, 0.37 kcal/mol. Take CTTAACACGTGATGTT: the “relative binding free energy” value worked out at 0.04 kcal/mol. With CTGTACACGTGGTAAG, the “relative binding free energy” value amounted to 0.07 kcal/mol.

With CGGGACACGTGGGGCG, the “relative binding free energy” value is -0.11 kcal/mol. With GTATTCACGTGGTAGC the figure was 0.24 kcal/mol. With TTAGTCACGTGTATGA the figure was 0.11 kcal/mol; with TGAGCCACGTGGGTGG, -0.24 kcal/mol; with GGGGTCACGTGTCCGA, 0.18 kcal/mol. Regarding GACTTCACGTGGGGGT, the “relative binding free energy” value was 0.21 kcal/mol. With TGCATCACGTGGAGTA the figure was 0.09 kcal/mol; with TATGCCACGTGATGTG, 0.11 kcal/mol; with ATCGGCACGTGTGGAT, -0.02 kcal/mol. With TAGAGCACGTGGTCGT the figure was -0.29 kcal/mol; with TCGTGCACGTGTGGGA, -0.01 kcal/mol. With TGTTTCACGTGTGATC the figure was 0.33 kcal/mol; with AGGCTCACGTGGAGAT, 0.32 kcal/mol. Take CTAGTCACGTGGTAAT: the “relative binding free energy” value is 0 kcal/mol.

For AGGAACACGTGTGTGC, the “relative binding free energy” value was determined as 0.1 kcal/mol. With CGGTGCACGTGTGTTT the figure was 0.01 kcal/mol. Take TTTTTCACGTGTGAGC: the “relative binding free energy” value was 0.3 kcal/mol. The value for CCTGGCACGTGTGGGG was -0.05 kcal/mol. For GTTTGCACGTGAACTG, the “relative binding free energy” value was found to be 0.2 kcal/mol. Turning to TTTGGCACGTGTTCCG, the “relative binding free energy” value is -0.2 kcal/mol. With TGATGCACGTGCTAGT the figure was 0 kcal/mol; with CGTAGCACGTGCGGGT, -0.18 kcal/mol. The value for GTTTTCACGTGAAGGA was 0.47 kcal/mol; that for GGATGCACGTGAAAGG was 0.21 kcal/mol. TGAGCCACGTGGTGGC: the “relative binding free energy” value is -0.02 kcal/mol. The value for TGAGACACGTGATGGG was 0.15 kcal/mol; that for GCGTCCACGTGATTGG was 0.49 kcal/mol. As for TTAATCACGTGGGGGT, the “relative binding free energy” value is -0.06 kcal/mol.

Turning to TAGAACACGTGATGTG, the “relative binding free energy” value is 0.12 kcal/mol. With TTCGGCACGTGATAGT the figure was -0.03 kcal/mol.

TCGGCCACGTGGGAGG: the “relative binding free energy” value is -0.14 kcal/mol.

In the case of AAGGTCACGTGTGCAT, the “relative binding free energy” value worked out at 0.21 kcal/mol.

Consider CTGGCCACGTGATGTG, for which the “relative binding free energy” value came out at 0.05 kcal/mol. With TATGGCACGTGGCGAA the figure was -0.18 kcal/mol; with TGGTGCACGTGGGATA, -0.06 kcal/mol; with CGGGGCACGTGATGTA, 0.07 kcal/mol. Consider TTTCACACGTGGCGGG, for which the “relative binding free energy” value is -0.05 kcal/mol.

As to GGGGCCACGTGAATTT, the “relative binding free energy” value came to 0.38 kcal/mol. AAAAACACGTGGTGTT: the “relative binding free energy” value was -0.13 kcal/mol.

Consider TTGTTCACGTGCCCGT, for which the “relative binding free energy” value worked out at 0.37 kcal/mol.

In the case of TGTTACACGTGTGATC, the “relative binding free energy” value came out at 0.16 kcal/mol. With AGGGTCACGTGATAAA the figure was 0.1 kcal/mol. With AACGTCACGTGGGTTT the figure was -0.03 kcal/mol; with CATAGCACGTGTGGGT, 0.03 kcal/mol; with TTGGGCACGTGGTGGT, -0.06 kcal/mol. With GTTAGCACGTGTGGTC the figure was 0.05 kcal/mol; with ATATTCACGTGTTGTG, 0.14 kcal/mol; with AGGATCACGTGGTGAG, 0.12 kcal/mol. In the case of TCGTTCACGTGGTCTG, the “relative binding free energy” value turned out to be 0.04 kcal/mol.

As for TTGTTCACGTGAGTAA, the “relative binding free energy” value came out at 0.31 kcal/mol.

TCAGGCACGTGGGGGA: the “relative binding free energy” value was -0.21 kcal/mol.

TGTAGCACGTGACTTT: the “relative binding free energy” value is -0.02 kcal/mol.
